The campaign covered roughly 310,000 compounds. About 14,000 (4.5%) showed an effect of 50% or more. The effect is printed as a negative number. The list shows a part of the results.
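Note: peak tail current of the secondary pulse compared with the same well before compound.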

In this assay the target is human ether-à-go-go-related gene (hERG) potassium channel (human, UniProt Q12809). As to the kind of experiment: primary screen, population patch clamp on CHO cells stably expressing hERG.
human ether-à-go-go-related gene (hERG) potassium channel, sequence (Q12809 whole entry, looked up): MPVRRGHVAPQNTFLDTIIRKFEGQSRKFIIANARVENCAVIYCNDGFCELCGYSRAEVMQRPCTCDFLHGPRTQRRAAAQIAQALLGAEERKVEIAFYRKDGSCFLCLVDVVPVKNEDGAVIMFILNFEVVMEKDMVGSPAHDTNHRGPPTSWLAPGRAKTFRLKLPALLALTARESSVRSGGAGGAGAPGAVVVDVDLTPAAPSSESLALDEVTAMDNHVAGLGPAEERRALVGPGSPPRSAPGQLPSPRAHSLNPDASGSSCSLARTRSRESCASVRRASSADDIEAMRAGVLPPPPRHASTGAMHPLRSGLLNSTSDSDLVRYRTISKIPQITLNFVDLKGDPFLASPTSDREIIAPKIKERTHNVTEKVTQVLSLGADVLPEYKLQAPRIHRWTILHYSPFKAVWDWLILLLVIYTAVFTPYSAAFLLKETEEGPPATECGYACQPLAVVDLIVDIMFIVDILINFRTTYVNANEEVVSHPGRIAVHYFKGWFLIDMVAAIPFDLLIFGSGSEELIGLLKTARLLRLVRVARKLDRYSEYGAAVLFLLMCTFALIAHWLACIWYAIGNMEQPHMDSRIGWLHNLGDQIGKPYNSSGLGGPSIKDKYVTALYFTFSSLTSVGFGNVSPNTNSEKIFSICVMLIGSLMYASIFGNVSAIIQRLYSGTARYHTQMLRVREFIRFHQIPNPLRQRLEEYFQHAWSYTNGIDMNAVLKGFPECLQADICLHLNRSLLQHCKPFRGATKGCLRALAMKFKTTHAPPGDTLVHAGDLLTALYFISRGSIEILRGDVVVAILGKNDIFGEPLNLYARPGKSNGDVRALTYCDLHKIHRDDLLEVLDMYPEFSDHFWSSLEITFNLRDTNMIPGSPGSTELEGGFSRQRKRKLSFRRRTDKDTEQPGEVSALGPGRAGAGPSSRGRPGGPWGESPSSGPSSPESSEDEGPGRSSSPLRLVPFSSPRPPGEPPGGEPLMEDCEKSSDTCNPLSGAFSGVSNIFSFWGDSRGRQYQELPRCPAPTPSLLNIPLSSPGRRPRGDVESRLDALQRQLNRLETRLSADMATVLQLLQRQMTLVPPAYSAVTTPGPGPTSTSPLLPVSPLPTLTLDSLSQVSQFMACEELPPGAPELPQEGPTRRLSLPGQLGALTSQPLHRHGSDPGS
On to `O=C(O)C(=O)O.O=C(c1ccco1)N1CCN(Cc2ccc(Br)cc2)CC1`, for which the “hERG current change (%, negative = inhibition) at 10uM” value is given as -38.1%.
Consider `CCOc1ccc(C2/C(=C(\O)c3c(C)[nH]c(C(=O)OC)c3C)C(=O)C(=O)N2CCN(C)C)cc1` (stereo not drawn), for which the “hERG current change (%, negative = inhibition) at 10uM” value is -7.42%.
With `CCN(C(=O)C1CCCN1S(=O)(=O)c1ccc2c(c1)n(C)c(=O)c(=O)n2C)c1ccccc1` (stereo not drawn), the “hERG current change (%, negative = inhibition) at 10uM” value is -3.32%.
For `Cc1cccc(NC(=O)c2cccnc2Cl)n1`, the “hERG current change (%, negative = inhibition) at 10uM” value is listed as 19.8%.
Then `CCCc1nc2ccccc2c(C(=O)OCC(=O)NCc2ccc3c(c2)OCO3)c1CC`, with 0.444%.
In the case of `O=C(NCC1CCCN1S(=O)(=O)c1cccs1)c1cccc([N+](=O)[O-])c1` (stereo not drawn), the “hERG current change (%, negative = inhibition) at 10uM” value is -24.5%.
Then `COC(CNC(=O)C1CCN(S(=O)(=O)c2ccc3nc4c(c(C(=O)O)c3c2)CC(C)CC4)CC1)OC` (stereo not drawn), with 36.9%; and `CCOC(=O)Cn1c(CN(C)Cc2ccccc2)nc2c1c(=O)n(C)c(=O)n2C`, with -14.6%; and `Clc1ccc(C=NC23CN4CN(CN(C4)C2)C3)cc1`, with 8.89%.
With `CCc1ccc2oc(C(=O)Nc3nonc3C)c(C)c2c1`, the “hERG current change (%, negative = inhibition) at 10uM” value is given as 10.3%.
With `O=C(NC1CCN(S(=O)(=O)c2ccccc2)CC1)C1CCCCC1`, the “hERG current change (%, negative = inhibition) at 10uM” value came out at 0.841%.
Turning to `CCOC(=O)CSc1cc(CSc2ccccc2)nc(-c2ccccc2)n1`, the “hERG current change (%, negative = inhibition) at 10uM” value is 5.76%.
As for `Cc1cccc(CCNC(=O)Cc2ccc(NC3=NC4CS(=O)(=O)CC4S3)cc2)c1` (stereo not drawn), the “hERG current change (%, negative = inhibition) at 10uM” value is given as 3.2%.
For `CCOC(=O)C1CCN(c2c(C(=O)c3ccccc3)cnc3ccc(Cl)cc23)CC1` the value was 8.07%; for `O=S(=O)(NCCc1csc(-c2cccnc2)n1)c1cccc(F)c1`, -15.2%; for `COc1ccc(C(c2sc3nc(C)nn3c2O)N2CCCCC2)cc1` (stereo not drawn), 12.3%.
For `CCO.CCOC(=O)C1=C(C)Nc2sc(C(=O)c3ccc(OC)cc3)c(N)c2C1c1ccc(C(=O)OC)cc1` (stereo not drawn) the value was 14.4%; for `O=C(O)C(=O)O.O=C(c1cccs1)N1CCN(Cc2cccnc2)CC1`, 1.56%.
In the case of `COc1cc([N+](=O)[O-])ccc1NC(=O)NNC(=O)C(C)Oc1ccc(F)cc1F` (stereo not drawn), the “hERG current change (%, negative = inhibition) at 10uM” value is listed as -9.58%.
Take `Cc1sc2ncnc(SCC(=O)N3CCOCC3)c2c1C`: the “hERG current change (%, negative = inhibition) at 10uM” value worked out at 13.8%.
As to `C=CCNCCOc1c(C)cc(C)cc1Cl.O=C(O)C(=O)O`, the “hERG current change (%, negative = inhibition) at 10uM” value is -21.2%.
`Cc1ccccc1NC(=O)c1ccc(CN2CCC(Cc3ccccc3)CC2)cc1`: the “hERG current change (%, negative = inhibition) at 10uM” value is listed as -52.2%.
`CCOc1cccc(-c2nnc3sc(-c4cccs4)nn23)c1`: the “hERG current change (%, negative = inhibition) at 10uM” value is on record as -12.5%.
For the molecule `CSc1ccccc1NC(=O)CCc1ccccc1`, the “hERG current change (%, negative = inhibition) at 10uM” value is on record as 4.12%.
With `Fc1ccc(-c2ccnc3nc(-n4cccc4)nn23)cc1`, the “hERG current change (%, negative = inhibition) at 10uM” value is -17.7%.
Then `CC1C(=O)CCCCCCCCCC2C1(N1CCOCC1)CS2(=O)=O` (stereo not drawn), with -4.39%; and `CCOC(=O)C1CCN(CC(=O)N(CC(C)C)c2c(N)n(CC(C)C)c(=O)[nH]c2=O)CC1`, with 22.5%; and `O=C(Cc1ccccc1)NN1C(=O)C2C(C1=O)C1C=CC2C12CC2` (stereo not drawn), with -6.85%.
As for `COc1ccc2oc(=O)c(C(=O)NCc3ccco3)cc2c1`, the “hERG current change (%, negative = inhibition) at 10uM” value is listed as 8.73%.
As for `COc1ccc(-c2ccc(=O)n(Cc3c(F)cccc3Cl)n2)cc1`, the “hERG current change (%, negative = inhibition) at 10uM” value is reported as 8.44%.
As to `Cc1cc(Nc2ccccc2)nc(N2CCOCC2)n1`, the “hERG current change (%, negative = inhibition) at 10uM” value is recorded as -6.34%.
As to `C/C=C(/C)C(=O)O[C@@H]1c2c(ccc3ccc(=O)oc23)O[C@@H]1C(C)(C)OC(C)=O`, the “hERG current change (%, negative = inhibition) at 10uM” value came out at 6.16%.
Then `CSCCC(NC(=O)C12CC3CC(CC(C3)C1)C2)C(=O)OCC(=O)c1ccc(C)cc1` (stereo not drawn), with 43.8%; and `CCCCn1c(N)c(N(Cc2ccccc2OC)C(=O)C2=COCCO2)c(=O)[nH]c1=O`, with 19.7%; and `COc1ccc(NC(=O)c2cn(CCC#N)nc2-c2ccc([N+](=O)[O-])cc2)cc1`, with 2.58%.
For `Cc1cc(C)cc(NC(=O)C2CC3CCC2C3)c1` (stereo not drawn) the value was 10%; for `COc1ccc(CNC(=O)CN2CCN(c3ccccc3)CC2)cc1`, 3.65%.
On to `Cc1ccc(S(=O)(=O)N(C)c2ccccc2C(=O)Nc2ccc(F)cc2F)cc1`, for which the “hERG current change (%, negative = inhibition) at 10uM” value is reported as -3.62%.
For `CCCc1cc(C(=O)Nc2ccc(F)cc2F)no1`, the “hERG current change (%, negative = inhibition) at 10uM” value was -4.51%.
Take `Cc1noc(-c2ccc(Cl)cc2)c1C(=O)O/N=C(\N)c1ccc(C(C)(C)C)cc1`: the “hERG current change (%, negative = inhibition) at 10uM” value turned out to be 2.54%.
As to `COC(=O)C1=C(O)/C(=C\c2ccc(CNS(=O)(=O)c3ccccc3)o2)N=C1C`, the “hERG current change (%, negative = inhibition) at 10uM” value worked out at 16%.
For the molecule `CC(=O)C1=C(C)N(CC2CC2)C(=O)N[C@H]1c1ccccc1`, the “hERG current change (%, negative = inhibition) at 10uM” value came to 19.6%.
For `Cc1nn(-c2ccccc2)c(N2CCCC2)c1/C=N/NC(=O)c1ccccc1O` the value was -2.88%.
`CC(C)CN(CCCNC(=O)CN1C(=O)COc2ccc(S(=O)(=O)N3CCC(C)CC3)cc21)CC(C)C`: the “hERG current change (%, negative = inhibition) at 10uM” value is recorded as -2.94%.
With `CCOc1cc(C(=O)OCC(=O)c2c(N)n(C)c(=O)n(C)c2=O)cc(OCC)c1OCC`, the “hERG current change (%, negative = inhibition) at 10uM” value is -0.702%.
For `COc1ccccc1N1CCN(c2nc(C)cc(C)c2C#N)CC1` the value was 12.3%; for `COc1ccc(C)cc1NC(=O)C1CCCN(S(=O)(=O)c2ccc(-n3cnnn3)cc2)C1` (stereo not drawn), -69.8%.
Regarding `Cc1ccc(CNC(=O)Cn2nnc3ccccc3c2=O)cc1`, the “hERG current change (%, negative = inhibition) at 10uM” value was determined as 10.8%.
Then `COc1cccc(NC(=O)C2(S(=O)(=O)c3ccc(Cl)cc3)CC2)c1`, with -15.9%; and `Cc1cccc(NC(=S)NC2CCCCC2)n1`, with -7.19%; and `CN1CCN(c2nc(Cl)ncc2F)CC1`, with -1.32%.
Take `CC(C)Cc1csc(NC(=O)c2ccccc2Cl)c1C(=O)O`: the “hERG current change (%, negative = inhibition) at 10uM” value is 9.58%.
Then `Cc1occc1C(=O)N/N=C/C=C/c1ccc(N(C)C)cc1`, with -20.1%; and `CCOC(=O)CSc1nnc(Cc2ccc(OC)cc2)n1-c1ccccc1`, with 1.35%.
`Clc1ccccc1-c1nnc2sc(-c3ccco3)nn12`: the “hERG current change (%, negative = inhibition) at 10uM” value was -21.8%.
For `O=C(CNC1CCCCCC1)Nc1ccccc1N1CCOCC1.O=C(O)C(=O)O` the value was -1.46%; for `CC(C)NC(=O)NC(=O)COC(=O)c1ncc(Cl)c(Cl)c1Cl`, 22.6%; for `CC/C(=N\NC(C)=O)c1ccc(OC(F)F)cc1`, 20.4%.
For the molecule `COc1ccc(CNc2ccc([N+](=O)[O-])cc2C)cc1`, the “hERG current change (%, negative = inhibition) at 10uM” value was -7.16%.
As for `Cc1ccc(NNC(=O)C2CCC2)cc1C`, the “hERG current change (%, negative = inhibition) at 10uM” value is listed as -16.6%.
As for `COC(=O)c1ccccc1NC(=O)C1COc2ccccc2O1` (stereo not drawn), the “hERG current change (%, negative = inhibition) at 10uM” value is on record as -12.4%.
Take `O=C(O)C1CCN(S(=O)(=O)c2ccc3c(c2)OCCCO3)CC1`: the “hERG current change (%, negative = inhibition) at 10uM” value is on record as 18.9%.
For `CN(C)C(=S)Oc1ccccc1-c1ccccc1OC(=S)N(C)C` the value was 12.6%.
As to `O=C(NCc1ccc2c(c1)OCO2)C1CCC(=O)N1C1CCCC1` (stereo not drawn), the “hERG current change (%, negative = inhibition) at 10uM” value is recorded as -6.48%.
For `Cc1nn(CC(=O)Nc2cc(S(=O)(=O)N3CCOCC3)ccc2Cl)c(C)c1[N+](=O)[O-]`, the “hERG current change (%, negative = inhibition) at 10uM” value is on record as 14.4%.
As for `CN(C)S(=O)(=O)N1CCN(C(=O)N2CCCCCC2)CC1`, the “hERG current change (%, negative = inhibition) at 10uM” value was -12.2%.
With `CCOC(=O)c1cccc(NC(=O)COc2ccc([N+](=O)[O-])cc2)c1`, the “hERG current change (%, negative = inhibition) at 10uM” value is on record as -68%.
Regarding `NC(=O)CC[C@@H]1NC(=O)[C@H](CO)NC(=O)c2cc([N+](=O)[O-])cc(I)c2NCC[C@@H](C(N)=O)NC(=O)[C@H](Cc2ccc(O)cc2)NC1=O`, the “hERG current change (%, negative = inhibition) at 10uM” value came out at 15.5%.
With `O=C(O)c1ccc(CS(=O)(=O)Cc2ccccc2F)o1`, the “hERG current change (%, negative = inhibition) at 10uM” value stood at 7.86%.
For the molecule `CC1=C(C(=O)OCc2ccc3c(c2)OCO3)C(c2ccccc2)NC(=O)N1` (stereo not drawn), the “hERG current change (%, negative = inhibition) at 10uM” value is -43.6%.
In the case of `Cc1ccc(S(=O)(=O)N2CCN(C(=O)CC(C)n3cncn3)CC2)cc1` (stereo not drawn), the “hERG current change (%, negative = inhibition) at 10uM” value came out at 1.17%.
Regarding `NS(=O)(=O)c1ccc(NC(=S)N2CCN(Cc3ccc4c(c3)OCO4)CC2)cc1`, the “hERG current change (%, negative = inhibition) at 10uM” value is recorded as 2.93%.
In the case of `Cc1ccc(CNC(=O)Cc2csc(Nc3nc(=S)[nH]c4ccccc34)n2)cc1`, the “hERG current change (%, negative = inhibition) at 10uM” value is given as 6.18%.
On to `CCN(CC)S(=O)(=O)c1ccc(F)cc1`, for which the “hERG current change (%, negative = inhibition) at 10uM” value is -5.33%.
For `Cc1ncc(C[n+]2csc(CCO)c2C)c(N)n1.Cl.[Cl-]` the value was 15.3%; for `O=C1C=C(c2cccc(Cl)c2)C[C@@H](c2ccc3c(c2)OCO3)C1`, 1.92%; for `CCOC(=O)CNC(=O)c1cccnc1.Cl`, -0.177%.
For the molecule `O=C(Cn1cccc1)N1CCc2ccccc21`, the “hERG current change (%, negative = inhibition) at 10uM” value came to 3.12%.
In the case of `O=C1NN(c2ccccc2)C(=O)/C1=C\c1ccccc1OCC(=O)N1CCOCC1`, the “hERG current change (%, negative = inhibition) at 10uM” value is listed as 1.33%.
With `COCCNc1nc(N)c([N+](=O)[O-])c(NCC2CCCO2)n1` (stereo not drawn), the “hERG current change (%, negative = inhibition) at 10uM” value came out at 5.65%.
Turning to `CN(C(=O)CSc1nnc(Cc2ccccc2F)n1N)C1CCS(=O)(=O)C1` (stereo not drawn), the “hERG current change (%, negative = inhibition) at 10uM” value was 9.76%.
In the case of `CCOc1ccc(NC(=O)CN2CC(c3ccccc3)CC2=O)cc1` (stereo not drawn), the “hERG current change (%, negative = inhibition) at 10uM” value is given as -19.9%.
Consider `O=C(COC(=O)c1ccc2ccccc2n1)NC1CCCCC1`, for which the “hERG current change (%, negative = inhibition) at 10uM” value was 13.9%.
For `COc1cc(/C=N/NC(=S)NC2CC3CC2C2C=CCC32)ccc1O` (stereo not drawn) the value was -9.29%; for `O=C(CSc1nc2nc(-c3cccs3)cc(C(F)(F)F)c2c(=O)[nH]1)C(F)(F)F`, -1.89%.
Then `C/C(=N\NC(=S)NCc1ccccc1)c1ccc2ccccc2c1OC(F)F`, with -17.5%; and `O=C(c1cnn2c(C(F)F)cc(-c3ccccc3)nc12)N1CCSCC1`, with -9.35%.
